Test results as given in the supplement of paper PMC4967469.

Legend:
[1] = compound: CN(C)CCOc1ccc(-c2nc(-c3ccncc3)c(-c3ccc4c(c3)CC/C4=N\O)[nH]2)cc1 [SB590885]; assay: Viability of human cancer cell lines after 72 h of drug (GDSC screen); conditions: top dose 5 µM; top dose inferred
Experimental: (§1)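 Human cancer cell lines in 384-well plates, medium with 10% serum, drug for 72 h over a 256-fold dose range (nine 2-fold or five 4-fold steps up to the top dose). Adherent lines were fixed and stained with the nucleic acid dye Syto60, suspension lines read with resazurin; signal relative to control wells, capped at 0 and 100%. One two-parameter sigmoid per drug and line, fitted in a mixed model over all curves with the slope shared within a line.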

[2] = compound: CCN(CC)CCCCNc1ncc2cc(-c3cc(OC)cc(OC)c3)c(NC(=O)NC(C)(C)C)nc2n1 [PD-173074]; assay: as above; conditions: top dose 2 µM; top dose inferred
Experimental: as §1

| Cell Line | AUC [1] | IC50 [1] | AUC [2] | IC50 [2] |
| --- | --- | --- | --- | --- |
| KARPAS-1106P (B-cell lymphoma, suspension) | 0.993 | > 5000 nM | 0.958 | > 2000 nM |
| KATOIII (stomach, semi-adherent) | 0.99 | > 5000 nM | 0.297 | 35.5 nM |
| KLE (endometrium, adherent) | 0.978 | > 5000 nM | 0.978 | > 2000 nM |
| KMH-2 (thyroid, adherent) | 0.934 | > 5000 nM | 0.987 | > 2000 nM |
| KMRC-1 (kidney, adherent) | 0.987 | > 5000 nM | 0.949 | > 2000 nM |
| KMRC-20 (kidney, adherent) | 0.988 | > 5000 nM | 0.972 | > 2000 nM |
| KMS-11 (myeloma, suspension) | 0.977 | > 5000 nM | 0.981 | > 2000 nM |
| KNS-62 (lung squamous cell carcinoma, adherent) | 0.868 | > 5000 nM | 0.977 | > 2000 nM |
| KON (head and neck, adherent) | 0.912 | > 5000 nM | 0.921 | > 2000 nM |
| KOPN-8 (B-cell leukaemia, suspension) | 0.951 | > 5000 nM | 0.988 | > 2000 nM |
| KP-1N (pancreas, adherent) | 0.956 | > 5000 nM | 0.982 | > 2000 nM |
| KP-2 (pancreas, adherent) | 0.943 | > 5000 nM | 0.953 | > 2000 nM |
| KP-3 (pancreas, adherent) | 0.984 | > 5000 nM | 0.984 | > 2000 nM |
| KU-19-19 (bladder, adherent) | 0.97 | > 5000 nM | 0.983 | > 2000 nM |
| KYAE-1 (oesophagus, suspension) | 0.985 | > 5000 nM | 0.969 | > 2000 nM |
| KYSE-50 (oesophagus, adherent) | 0.99 | > 5000 nM | 0.987 | > 2000 nM |
| KYSE-140 (oesophagus, adherent) | 0.968 | > 5000 nM | 0.984 | > 2000 nM |
| KYSE-150 (oesophagus, adherent) | 0.99 | > 5000 nM | 0.98 | > 2000 nM |
| KYSE-220 (oesophagus, adherent) | 0.986 | > 5000 nM | 0.986 | > 2000 nM |
| KYSE-410 (oesophagus, adherent) | 0.971 | > 5000 nM | 0.98 | > 2000 nM |
| KYSE-450 (oesophagus, adherent) | 0.988 | > 5000 nM | 0.976 | > 2000 nM |
| KYSE-510 (oesophagus, adherent) | 0.99 | > 5000 nM | 0.981 | > 2000 nM |
| KYSE-520 (oesophagus, adherent) | 0.978 | > 5000 nM | 0.932 | > 2000 nM |
| LC-1-sq (lung squamous cell carcinoma, adherent) | 0.975 | > 5000 nM | 0.956 | > 2000 nM |
| LCLC-97TM1 (large cell lung carcinoma, adherent) | 0.888 | > 5000 nM | 0.927 | > 2000 nM |

| Cell Line | AUC [1] | IC50 [1] | AUC [2] | IC50 [2] |
| --- | --- | --- | --- | --- |
| LCLC-103H (large cell lung carcinoma, adherent) | 0.98 | > 5000 nM | 0.962 | > 2000 nM |
| LK-2 (lung squamous cell carcinoma, adherent) | 0.988 | > 5000 nM | 0.866 | 1620 nM |
| LN-18 (glioma, adherent) | 0.994 | > 5000 nM | 0.994 | > 2000 nM |
| LN-229 (glioma, adherent) | 0.986 | > 5000 nM | 0.978 | > 2000 nM |
| LN-405 (glioma, adherent) | 0.96 | > 5000 nM | 0.975 | > 2000 nM |
| LNZTA3WT4 (glioma, adherent) | 0.989 | > 5000 nM | 0.937 | > 2000 nM |
| LOU-NH91 (lung squamous cell carcinoma, adherent) | 0.986 | > 5000 nM | 0.986 | > 2000 nM |
| LS-180 (large intestine, adherent) | 0.93 | > 5000 nM | 0.936 | > 2000 nM |
| LU-135 (small cell lung carcinoma, suspension) | 0.992 | > 5000 nM | 0.939 | > 2000 nM |
| LoVo (large intestine, adherent) | 0.971 | > 5000 nM | 0.977 | > 2000 nM |
| M059J (glioma, adherent) | 0.985 | > 5000 nM | 0.974 | > 2000 nM |
| MC-IXC (neuroblastoma, adherent) | 0.995 | > 5000 nM | 0.996 | > 2000 nM |
| MCF7 (breast, adherent) | 0.961 | > 5000 nM | 0.953 | > 2000 nM |
| MDA-MB-157 (breast, adherent) | 0.988 | > 5000 nM | 0.967 | > 2000 nM |
| MDA-MB-231 (breast, adherent) | 0.949 | > 5000 nM | 0.97 | > 2000 nM |
| MDA-MB-330 (breast, adherent) | 0.963 | > 5000 nM | 0.986 | > 2000 nM |
| MDA-MB-361 (breast, adherent) | 0.989 | > 5000 nM | 0.989 | > 2000 nM |
| MDA-MB-415 (breast, adherent) | 0.983 | > 5000 nM | 0.972 | > 2000 nM |
| MDA-MB-436 (breast, adherent) | 0.984 | > 5000 nM | 0.983 | > 2000 nM |
| MDA-MB-453 (breast, adherent) | 0.976 | > 5000 nM | 0.949 | > 2000 nM |
| MDA-MB-468 (breast, adherent) | 0.975 | > 5000 nM | 0.984 | > 2000 nM |
| ME-180 (cervix, adherent) | 0.986 | > 5000 nM | 0.986 | > 2000 nM |
| MEL-HO (melanoma, adherent) | 0.311 | 91.4 nM | 0.961 | > 2000 nM |
| MEL-JUSO (melanoma, adherent) | 0.984 | > 5000 nM | 0.984 | > 2000 nM |
| MES-SA (uterus, adherent) | 0.988 | > 5000 nM | 0.966 | > 2000 nM |

| Cell Line | AUC [1] | IC50 [1] | AUC [2] | IC50 [2] |
| --- | --- | --- | --- | --- |
| MFE-280 (endometrium, adherent) | 0.982 | > 5000 nM | 0.957 | > 2000 nM |
| MFE-296 (endometrium, adherent) | 0.977 | > 5000 nM | 0.837 | 1490 nM |
| MG-63 (osteosarcoma, adherent) | 0.984 | > 5000 nM | 0.843 | 1770 nM |
| MHH-CALL-2 (B-cell leukaemia, suspension) | 0.995 | > 5000 nM | 0.99 | > 2000 nM |
| MHH-ES-1 (Ewing sarcoma, adherent) | 0.951 | > 5000 nM | 0.966 | > 2000 nM |
| MIA-PaCa-2 (pancreas, adherent) | 0.95 | > 5000 nM | 0.966 | > 2000 nM |
| MKN7 (stomach, adherent) | 0.956 | > 5000 nM | 0.943 | > 2000 nM |
| MKN28 (stomach, adherent) | 0.982 | > 5000 nM | 0.986 | > 2000 nM |
| MM1S (myeloma, suspension) | 0.988 | > 5000 nM | 0.94 | > 2000 nM |
| MOG-G-CCM (glioma, adherent) | 0.983 | > 5000 nM | 0.931 | > 2000 nM |
| MOG-G-UVW (glioma, adherent) | 0.964 | > 5000 nM | 0.949 | > 2000 nM |
| MOLM-16 (acute myeloid leukaemia, suspension) | 0.986 | > 5000 nM | 0.834 | 1090 nM |
| MOLT-13 (T-cell lymphoblastic leukaemia, suspension) | 0.99 | > 5000 nM | 0.952 | > 2000 nM |
| MOLT-16 (T-cell lymphoblastic leukaemia, suspension) | 0.949 | > 5000 nM | 0.956 | > 2000 nM |
| MS751 (cervix, adherent) | 0.986 | > 5000 nM | 0.978 | > 2000 nM |
| NCC010 (kidney, adherent) | 0.986 | > 5000 nM | 0.986 | > 2000 nM |
| NCC021 (kidney, adherent) | 0.981 | > 5000 nM | 0.898 | > 2000 nM |
| NCI-H28 (mesothelioma, adherent) | 0.978 | > 5000 nM | 0.978 | > 2000 nM |
| NCI-H146 (small cell lung carcinoma, suspension) | 0.995 | > 5000 nM | 0.976 | > 2000 nM |
| NCI-H460 (large cell lung carcinoma, adherent) | 0.99 | > 5000 nM | 0.986 | > 2000 nM |
| NCI-H508 (large intestine, semi-adherent) | 0.969 | > 5000 nM | 0.957 | > 2000 nM |
| NCI-H522 (lung adenocarcinoma, adherent) | 0.977 | > 5000 nM | 0.979 | > 2000 nM |
| NCI-H596 (lung adenocarcinoma, adherent) | 0.979 | > 5000 nM | 0.953 | > 2000 nM |

IC50 is the fitted dose that halves viability relative to control wells, and lower means more sensitive; where the fit passes the top or lowest dose, that dose stands as a limit. AUC, from the same fit, is the share of area under the viability curve across the 256-fold dose range; values near 1 show little effect. A top dose marked as inferred comes from the curve model; the source does not state it.
